The values that follow come from the supplement of paper PMC9446081.

Hit rate of the full screen: of about 39,000 compounds, about 220 (0.56%) showed activity. The list shows a part of the results.
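Further: static incubation at 37 °C against the wild-type strain, values averaged over two biological replicates.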

The test system of this assay is Escherichia coli K-12 BW25113. Nature of the assay: relative growth (OD600 normalised to plate interquartile mean) (fraction); higher = less growth inhibition, active = 0.2 or less. The following applies: 50 µM; LB; incubation time: overnight (16-24 h).
On to `Cc1cc(-c2ccc(N=Nc3ccc4c(S(=O)(=O)[O-])cc(S(=O)(=O)[O-])c(N)c4c3O)c(C)c2)ccc1N=Nc1ccc2c(S(=O)(=O)[O-])cc(S(=O)(=O)[O-])c(N)c2c1O.[Na+].[Na+].[Na+].[Na+]`, for which the relative growth is inactive: 2.26. In the case of `COCC#Cc1ccc2c(c1)O[C@H](CN(C)Cc1ccc3c(c1)OCO3)[C@H](C)CN([C@@H](C)CO)S2(=O)=O` it was inactive: 1.03. To `COc1ccc(NC(=O)Nc2ccc3c(c2)C(=O)N([C@@H](C)CO)C[C@@H](C)[C@@H](CN(C)S(=O)(=O)c2ccc(OC)cc2)OCCCC[C@H](C)O3)cc1` belongs inactive: 1.01; to `Cc1ccc(S(=O)(=O)Nc2ccc3c(c2)C(=O)N([C@@H](C)CO)C[C@@H](C)[C@@H](CN(C)C(=O)Nc2ccccc2)OCCCC[C@@H](C)O3)cc1`, inactive: 1.01. To `NC(=O)CN1CCCCCC1=O` belongs inactive: 1.02; to `CC(N)C12CC3CC(CC(C3)C1)C2.Cl` (configuration not stated), inactive: 1.04. As for `C[C@@H]1CN([C@H](C)CO)C(=O)c2cc(NC(=O)Nc3ccc(F)cc3)ccc2O[C@@H](C)CCCCO[C@@H]1CN(C)S(=O)(=O)c1ccc(F)cc1`, the relative growth was inactive: 1.02. `C[C@@H]1CCCCO[C@H](CN(C)C(=O)NC2CCCCC2)[C@@H](C)CN([C@@H](C)CO)C(=O)c2cc(NC(=O)C3CCCCC3)ccc2O1`: the relative growth was inactive: 1.07. On to `COc1ccc(S(=O)(=O)Nc2ccc3c(c2)C(=O)N([C@H](C)CO)C[C@H](C)[C@H](CN(C)C(=O)Nc2cccc4ccccc24)OCCCC[C@@H](C)O3)cc1`, for which the relative growth was inactive: 0.986. In the case of `CC(=O)N[C@@H]1[C@@H](OCCOc2ccc(Cl)cc2C)O[C@H](CO)[C@H](O)[C@@H]1O` it was inactive: 1.03; in that of `N#Cc1ccc(-c2ccccc2)nc1`, inactive: 0.994; in that of `Cc1ccc(S(=O)(=O)Nc2ccc3c(c2)C(=O)N([C@H](C)CO)C[C@@H](C)[C@@H](CN(C)S(C)(=O)=O)OCCCC[C@@H](C)O3)cc1`, inactive: 1.03.

As to `C[C@H](CO)N1C[C@H](C)[C@@H](CN(C)S(=O)(=O)c2ccc(F)cc2)Oc2ccc(NS(C)(=O)=O)cc2CC1=O`, the relative growth is inactive: 0.973. In the case of `C[C@H](CO)N1C[C@H](C)[C@@H](CN(C)Cc2ccc(C(F)(F)F)cc2)Oc2ccc(NC(=O)Cc3cn(C)c4ccccc34)cc2CC1=O` it was inactive: 1.01. To `CN1CCN(C(=O)C[C@H]2CC[C@H]3[C@@H](COC[C@H](O)CN3C(=O)C3CCCC3)O2)CC1` belongs inactive: 1.01; to `Cc1noc(C)c1NC(=O)Nc1cccc2c1O[C@H](CN(C)Cc1ccc(Oc3ccccc3)cc1)[C@H](C)CN([C@H](C)CO)C2=O`, inactive: 0.982. In the case of `COc1ccc(NC(=O)Nc2ccc3c(c2)C(=O)N([C@H](C)CO)C[C@H](C)[C@@H](CN(C)Cc2ccc(Cl)c(Cl)c2)OCCCC[C@@H](C)O3)cc1` it was inactive: 1.03. For `C[C@H](CO)N1C[C@H](C)[C@@H](CN(C)Cc2ccc(-c3ccccc3)cc2)Oc2ccc(NC(=O)Cc3ccccc3)cc2C1=O`, the relative growth was inactive: 0.967. To `O=C(C[C@H]1CC[C@H](NC(=O)c2cccnc2)[C@@H](CO)O1)NCCN1CCCCC1` belongs inactive: 0.999.

For the compound `COc1ccc(-c2cnc3c(c2)C(=O)N([C@H](C)CO)C[C@@H](C)[C@H](CN(C)C(=O)C2CCOCC2)O3)cc1`, the relative growth is inactive: 0.991.

`Cc1ccc(S(=O)(=O)N(C)C[C@@H]2Oc3c(NC(=O)c4cnccn4)cccc3C(=O)N([C@H](C)CO)C[C@@H]2C)cc1`: the relative growth is inactive: 1.01. Take `C[C@@H]1CN([C@@H](C)CO)C(=O)c2cc(NS(=O)(=O)c3ccccc3)ccc2O[C@H]1CN(C)C(=O)Nc1cccc2ccccc12`: the relative growth was inactive: 0.979. Turning to `C[C@H]1CN([C@@H](C)CO)S(=O)(=O)c2ccc(C#Cc3ccccc3)cc2O[C@@H]1CN(C)S(=O)(=O)c1cn(C)cn1`, the relative growth is inactive: 1.03. To `C[C@@H]1CN([C@H](C)CO)C(=O)c2cc(NC(=O)Nc3ccccc3)ccc2O[C@@H](C)CCCCO[C@@H]1CN(C)CC1CCCCC1` belongs inactive: 1.02.

On to `O=C(CCCc1ccccc1)OCC(COC(=O)CCCc1ccccc1)OC(=O)CCCc1ccccc1`, for which the relative growth is inactive: 0.967. As to `COCCOC(=O)N1C(=O)[C@@]2(c3cc(C#CC4(O)CCCCCC4)ccc31)[C@H](C(=O)NC[C@H](O)c1ccccc1)[C@H]1C(=O)O[C@H](c3ccccc3)[C@H](c3ccccc3)N1[C@@H]2c1ccc(OCCO)cc1`, the relative growth is inactive: 1.01. To `Nc1cc(N2CCCCC2)nc(N)[n+]1[O-]` belongs inactive: 1.07. To `O=C(O)Cn1nnc(-c2ccccc2)n1` belongs inactive: 1.05; to `O=C1CCC(C(=O)N2CSCC2C(=O)O)N1` (configuration not stated), inactive: 1.01.

In the case of `C[C@H](CO)N1C[C@H](C)[C@@H](CN(C)Cc2ccc(Cl)c(Cl)c2)Oc2c(NS(=O)(=O)c3ccc(F)cc3)cccc2C1=O`, the relative growth is inactive: 0.991. With `C[C@H]1CCCCO[C@H](CN(C)C(=O)Nc2ccc(F)cc2)[C@@H](C)CN([C@@H](C)CO)C(=O)c2cc(NS(=O)(=O)c3ccc(F)cc3)ccc2O1`, the relative growth was inactive: 0.997.

On to `C[C@@H]1CCCCO[C@@H](CN(C)S(=O)(=O)c2ccc(Cl)cc2)[C@H](C)CN([C@@H](C)CO)C(=O)c2cc(NC(=O)Nc3ccc(F)cc3)ccc2O1`, for which the relative growth is inactive: 1.02. In the case of `C[C@H](CO)N1C[C@H](C)[C@@H](CN(C)S(C)(=O)=O)Oc2cc(C#Cc3ccc(F)cc3)ccc2S1(=O)=O` it was inactive: 1.02; in that of `C[C@H](O)C#Cc1cnc2c(c1)C(=O)N([C@@H](C)CO)C[C@@H](C)[C@@H](CN(C)C(=O)CN1CCOCC1)O2`, inactive: 0.985; in that of `CO[C@H]1O[C@@H](COC(C)=O)[C@@H](OC(C)=O)C(C#N)(C#N)[C@@H]1OC(C)=O`, inactive: 0.994.

With `C[C@@H]1CCCCO[C@@H](CN(C)Cc2ccc(Cl)c(Cl)c2)[C@@H](C)CN([C@@H](C)CO)C(=O)c2cc(NS(=O)(=O)c3ccccc3)ccc2O1`, the relative growth is inactive: 0.997. To `C[C@H](CO)N1C[C@H](C)[C@H](CN(C)C(=O)CN(C)C)Oc2cc(-c3ccc(C#N)cc3)ccc2S1(=O)=O` belongs inactive: 0.972.
